We go through 98 compounds from ChEMBL document CHEMBL1156829.

Each structure is given as a SMILES string. “And” between values parts separate entries of the source, which are not always exact repeats. Identical values can stand only once. In all, about 5,400 compounds were measured (“IFI”: median about 2, highest 2% from about 22 on). The list shows a part of the results.

This test in a line: NOVARTIS: Inhibition Frequency Index (IFI) - the number of HTS assays where a compound showed > 50% inhibition/induction, expressed as a percentage of the number of assays in which the compound was tested. Type of test: functional.
Compound `COc1cc(-c2cc(C(F)(F)F)n3ncc(C(=O)Nc4cc(C)ccc4O)c3n2)cc(OC)c1OC` returned an IFI of 0%.
In the case of `CC(NCc1ccccc1)c1cc(Cl)ccc1O` (stereo not drawn) it was 0%.
The result for `N#Cc1ccc(CNC(=S)Nc2cc(Cl)ccc2Cl)cc1` reads 3.12%; that for `Cc1ccccc1Oc1ccc(S(=O)(=O)NC(CC(C)C)C(=O)O)cc1` (stereo not drawn), 0%; that for `Cc1nc(NN=Cc2c(O)ccc3ccccc23)cc(N2CCCCC2)n1`, 7.69%.
The result for `CC(=O)Nc1ccc2c(c1)C(=O)N(C(C(=O)NCc1ccccc1)C1CCCCC1)[C@@H](Cc1ccc(O)cc1)C(=O)N2` (stereo partly drawn) reads 2.44%; that for `O=C(Nc1ccc(-c2nnc(-c3ccc(NC(=O)c4ccccc4[N+](=O)[O-])cc3)o2)cc1)c1ccccc1[N+](=O)[O-]`, 0%; that for `CC1(C)CC(=O)c2cc(-c3ccc(Br)cc3)n(-c3ccccc3F)c2C1`, 3.12%.
For `Clc1cccc(-c2cn3ccnc3c(N3CCN(c4ccncc4)CC3)n2)c1`, the IFI stood at 4.4%.
With `Cc1ccc(NC2=C(c3ccc(C(F)(F)F)cc3)C(=O)c3ccccc32)cc1F`, the IFI came out at 0%.
The result for `Clc1ccccc1Nc1nc2nonc2nc1Nc1cccc(Br)c1` reads 15.4%.
As for `O=S(=O)(NCCNc1ncnc2scc(-c3ccccc3)c12)c1ccc(Cl)c(Cl)c1`, the IFI turned out to be 1.67%.
The result for `O=C(Nc1ccc(F)c(F)c1)c1ccccc1[N+](=O)[O-]` reads 0%.
In the case of `CC1=C(C(=O)OC(C)C)C(c2ccc(Br)cc2)C2=C(CC(c3ccc(Cl)cc3)CC2=O)N1` (stereo not drawn) it was 3.61%; in that of `CCOCCCN(C(=O)C(F)(F)F)C(C(=O)NC1CCCCC1)c1ccncc1` (stereo not drawn), 0%; in that of `Cc1ccn2c(NC(C)(C)CC(C)(C)C)c(-c3ccccc3OC(=O)CCC3CCCC3)nc2c1`, 2.8%.
`NCCNC(=O)COC(c1cccnc1)c1ccccc1Cl` (stereo not drawn) returned an IFI of 0.971%.
`COc1ccc(/C=C(/C#N)C(=O)Nc2cccc3ccccc23)cc1` returned an IFI of 0%.
The result for `CCOc1ccc(CCN2C(=S)N(c3cccc(C(F)(F)F)c3)C(=O)C2CC(=O)Nc2ccc(C(=O)OC)cc2)cc1OCC` (stereo not drawn) reads 3.26%.
The result for `Brc1cc(Br)c2c(-c3ccccc3)n(-c3ccccc3)nc(-c3ccccc3)c1-2` reads 0%; that for `CCc1ccc(C(=O)N(C)CCCNc2ccnc3cc(Cl)ccc23)cc1`, 7.34%; that for `Cc1ccc(C[n+]2cc(-c3ccc(C)cc3)n3c2CCC3)cc1`, 4.88%.
As to `O=C(C[n+]1cc(-c2ccc(Cl)cc2)n2c1CCC2)c1ccc(C2CCCCC2)cc1`, the IFI is 27.5%.
In the case of `O=C(Nc1cc(C(F)(F)F)ccc1OCc1ccccc1)c1ccccc1O` it was 0%; in that of `CCOC(=O)c1cnc2c(OC)cccc2c1Nc1ccc(OC)c(OC)c1`, 0%.
`CCc1cc(C(=O)N2CCC[C@@H]3CN(C(=O)c4ccc(F)cc4)CC[C@@H]32)n(C)n1` gave an IFI of 0.98%.
In the case of `N=c1c2c(n(Cc3ccc(Cl)c(Cl)c3)c3c1CCC3)CCCC2`, the IFI came to 14.3%.
In the case of `c1ccc2cc3c(N4CCN(CCCN5CCN(c6ccnc7cc8ccccc8cc67)CC5)CC4)ccnc3cc2c1`, the IFI came out at 7.14%.
Regarding `CCOC(=O)C1(CC)CC(C)(C(=O)C[n+]2cccc(Br)c2)OC1=O` (stereo not drawn), the IFI was 0%.
In the case of `CCN1CCN(Cc2c(O)ccc3c(=O)c(Oc4cccc(C)c4)c(C(F)(F)F)oc23)CC1` it was 1.18%; in that of `COc1ccc2nc(C)cc(Nc3ccc(Oc4ccc5ccccc5c4)c(Cl)c3)c2c1`, 7.14%.
Compound `COc1cc(/C=C(\C#N)c2nc3ccccc3[nH]2)ccc1OCc1ccccc1Cl` came in with an IFI of 0%.
The result for `CCN1CCC(N2C[C@H](n3cc(C(=O)OC)nn3)C[C@H]2C(=O)NCc2cccc(C(F)(F)F)c2)CC1` reads 0.99%; that for `CCOc1cc2c(cc1OCC)C(c1ccc(O)c(Cl)c1)NCC2` (stereo not drawn), 0%.
As to `COc1ccc(NC(=O)CCCCCn2c(SCC(=O)c3ccccc3)nc3ccsc3c2=O)cc1`, the IFI came out at 0%.
In the case of `COc1ccc2nc(C)cc(Nc3ccc(Oc4ccc(Br)c5ccccc45)c(Cl)c3)c2c1` it was 13.6%; in that of `C=CC1CN2CCC1CC2C(O)c1ccnc2ccc(OC)cc12` (stereo not drawn), 1.82%.
The result for `O=c1c2c([nH]c3cc(Cl)ccc13)CCCC2` reads 0%; that for `CC(C)CCNCC(O)Cn1c2ccc(Br)cc2c2cc(Br)ccc21` (stereo not drawn), 10.1%.
In the case of `CCCOC(=O)C1=C(C)NC2=C(C(=O)CC(c3ccc(OC)c(OC)c3)C2)C1c1ccc(Cl)c(Cl)c1` (stereo not drawn) it was 4.71%; in that of `COC(=O)C1=C(O)/C(=C\c2cc(C)n(-c3ccccc3F)c2C)N=C1C`, 0%.
`C#CCNC(=O)c1ccc(OC2CCN(CC(c3ccccc3)c3ccccc3)CC2)c(OC)c1` yielded an IFI of 2.74%.
In the case of `O=C(NCCCNC(=O)Nc1cccc(C2=NCCN2)c1)Nc1cccc(C2=NCCN2)c1` it was 0%; in that of `CN(CCCNc1ccnc2cc(Cl)ccc12)S(=O)(=O)c1cccc2cccnc12`, 6.48%; in that of `CCCCNC(=O)CSCc1cnn(-c2ccccc2)c1-n1cccc1`, 2.44%.
For the compound `CCOc1ccc2c(c1)c1nnc(-c3ccc4c(c3)OCO4)c-1cn2Cc1ccc(Cl)cc1`, the IFI turned out to be 5.88%.
In the case of `COc1ccc(Br)cc1CNC(=O)CCCN1C(=O)COc2ccc(C)cc21` it was 0%; in that of `O=C(NCCCCNC(=O)Nc1cccc(C2=NCCN2)c1)Nc1cccc(C2=NCCN2)c1`, 0.901%; in that of `CCCCCCN(C(=O)COCc1ccccc1)C(CC)c1nc2ccccc2c(=O)n1-c1cccc(Cl)c1` (stereo not drawn), 0.943%.
The result for `CC(=O)N1CCc2cc(NC3CCN(Cc4ccccc4)CC3)ccc21` reads 1.49%.
The result for `CCOC(=O)c1cnn(-c2ccnc3cc(Cl)ccc23)c1CNC(C)c1ccco1` (stereo not drawn) reads 2.59%; that for `Cc1ccc(NC(C)c2nc3ccccc3c(=O)n2CCOC2CCCCO2)cc1C` (stereo not drawn), 1.91%.
`O=C(Cn1ccc(=NCc2ccccc2)cc1)c1cccc(Br)c1` registered an IFI of 0%.
In the case of `Cc1ccc(/C=C/c2ccc3ccccc3[n+]2C)cc1` it was 5.98%.
In the case of `Cc1cc(C)[n+](C)n1CC(O)Cn1c2ccccc2c2ccccc21` (stereo not drawn) it was 1.03%.
Consider `COC(=O)c1ccc(C2C3=C(O)CC(c4ccco4)CC3=Nc3ccccc3N2C(=O)c2ccccc2)cc1` (stereo not drawn), for which the IFI was 4.08% and 2.41%.
The result for `C[n+]1cccc(/C=C2/c3ccccc3-c3ncccc32)c1` reads 0%; that for `Cc1ccc(-c2nnc(NCc3ccccc3)c3ccccc23)cc1S(=O)(=O)NCC1CCCO1` (stereo not drawn), 2.94%.
The result for `c1ccc(Nc2ccnc(Nc3ccccc3)n2)cc1` reads 5.2%.
In the case of `CCN(CC)CCNC(=O)C1c2ccccc2C(=O)N(Cc2ccc(F)cc2)C1c1ccc(OC)cc1` (stereo not drawn) it was 0%; in that of `CCOC(=O)C1=C(C)NC2=C(C(=O)CC(c3ccc(OC)c(OC)c3)C2)C1c1ccccc1Cl` (stereo not drawn), 3.53%; in that of `CCOC(=O)c1cc(-c2ccc(OC)cc2)n(CCC(=O)NCc2ccc(OC)cc2)c1C`, 0%.
`O=C(N1CCCCC1)n1nnc2ccccc21` showed an IFI of 3.33%.
The result for `COc1ccccc1C(c1nnnn1Cc1ccc(F)cc1)N1CCN(C)CC1` (stereo not drawn) reads 0%.
The result for `Cc1ccc2nc(-c3ccc(O)cc3)oc2c1` reads 7.14%; that for `COc1ccc(CCN2CCC(Nc3nc4ccccc4n3Cc3ccc(F)cc3)CC2)cc1`, 2.37%; that for `COc1cccc(CNc2cc(C(=O)NCCNC(C)=O)cc(S(=O)(=O)N(C)C)c2)c1OC`, 6.02%.
The result for `CC(C)C(=O)N(C)CCCNc1ccnc2cc(Cl)ccc12` reads 2.8%; that for `CC(=O)Nc1nc(-c2ccc(F)cc2)cs1`, 0%; that for `N#Cc1c(N)nc(SCC(=O)c2ccc([N+](=O)[O-])cc2)c(C#N)c1-c1ccccc1`, 2.35%.
For the compound `O=C1N(c2ccccc2)C[C@@H]2C[C@@H](c3ccc(C#CCCO)cc3)N3CCC[C@@]123`, the IFI was 0%.
The result for `COc1cccc2c1C(=O)c1c(O)c3c(c(O)c1C2=O)C[C@](O)(C(C)=O)C[C@@H]3O[C@H]1C[C@@H](N)[C@H](O)[C@H](C)O1` reads 19.7%; that for `CCCCNc1nc(NC(C)(C)C)nc(NC(C)(C)C)n1`, 0%; that for `Cc1ccc2c(c1)-c1c(ssc1=S)C(C)(C)N2C(=O)c1ccco1`, 0.746%.
`COCCNC(=O)c1ccc(NCCc2ccc(Cl)cc2)c(S(=O)(=O)Nc2cccc(C(F)(F)F)c2)c1` had an IFI of 0%.
On to `C(=NNc1nc2ccccc2[nH]1)c1c[nH]c2ccccc12`, for which the IFI is 13.1%.
The compound `N=c1n(Cc2ccccc2)c2ccccc2n1CC(O)c1ccc(Cl)c(Cl)c1` (stereo not drawn) came in with an IFI of 14.3%.
In the case of `Oc1ccc(Br)c(C(Nc2ccccn2)c2ccc3cccnc3c2O)c1` (stereo not drawn) it was 12.5%; in that of `CC(C=NNC(N)=S)=NNC(N)=S`, 21.8%; in that of `CCOC(=O)N1CCN(C(=O)CSc2nc(-c3ccc(Cl)cc3)cn2-c2ccc(C)cc2)CC1`, 0%.
Consider `CCOC(=O)C1=C(C)N/C(=C\c2cc(C)n(-c3cccc(Br)c3)c2C)C1=O`, for which the IFI was 0%.
Compound `O=C1CC(c2nc3ccccc3n2CCCOc2ccccc2)CN1c1ccc(F)cc1` (stereo not drawn) showed an IFI of 0%.
On to `O=C1c2ccccc2-n2c1nc1ccccc1c2=O`, for which the IFI is 2.19%.
The compound `CCCOC(=O)C1=C(C)NC2=C(C(=O)CC(c3ccc(OC)c(OC)c3)C2)C1c1ccc([N+](=O)[O-])cc1` (stereo not drawn) displayed an IFI of 2.38%.
`NC(=O)c1ccc(-n2nnnc2SCc2ccc(Cl)cc2)cc1` yielded an IFI of 1.59%.
The result for `Cc1ccc(NC(=O)CCCCC(=O)Nc2ccc(C)c(Br)c2)cc1Br` reads 0%.
The result for `Cc1[nH]c2ccccc2c1/C=C/c1cc[n+](C)cc1` reads 4.44%; that for `CCC(C)NC(=O)C1CSC(c2cccc(F)c2)N1C(=O)c1cc(OC)c(OC)c(OC)c1` (stereo not drawn), 1.92%; that for `Oc1ccc(Nc2nc(N3CCCC3)c3ccccc3n2)cc1`, 4.54%.
In the case of `C=CCNC(=O)c1ccc2c(c1)N=CN(CCOc1ccccc1)C2` it was 2.47%; in that of `Cc1oc2c(c1C(=O)NCC1CCCO1)C(=O)c1ccccc1C2=O` (stereo not drawn), 17%.
In the case of `COc1ccc(C(=O)C[N+]2=C(C)c3ccc(C)n3CC2)cc1`, the IFI worked out at 0%.
In the case of `CC(NC(=O)C(=O)N1CCCCC1)C(c1cccs1)N1CCOCC1` (stereo not drawn) it was 1.41%; in that of `CCCCSc1ncnc2c1c(-c1ccccc1)cn2-c1cccc(F)c1`, 0%; in that of `COc1cc(C(=O)NCCc2cc3ccccc3[nH]2)ccc1OC1CCN(CC(c2ccccc2)c2ccccc2)CC1`, 5.56%.
The result for `CCOc1cc(C2CC(=O)NC3=C2C(=O)CC(C)(C)C3)ccc1OC(C)C` (stereo not drawn) reads 0%.
With `OC(Cn1cnc(-c2ccccc2)c1-c1ccccc1)Cn1c2ccc(Br)cc2c2cc(Br)ccc21` (stereo not drawn), the IFI is 0.719%.
As for `Cc1ccn2c(NC(C)(C)CC(C)(C)C)c(-c3ccccc3OC(=O)c3ccc(C(F)(F)F)cc3)nc2c1`, the IFI turned out to be 7.02%.
